# Measurements taken from the supplement of paper PMC4967469.
# Experiments:
# Assay in all cases: Viability of human cancer cell lines after 72 h of drug (GDSC screen)
# UNC0638 = compound: COc1cc2c(NC3CCN(C(C)C)CC3)nc(C3CCCCC3)nc2cc1OCCCN1CCCC1 [UNC0638]
# Description: (§1)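 Human cancer cell lines in 384-well plates, medium with 10% serum, drug for 72 h over a 256-fold dose range (nine 2-fold or five 4-fold steps up to the top dose). Adherent lines were fixed and stained with the nucleic acid dye Syto60, suspension lines read with resazurin; signal relative to control wells, capped at 0 and 100%. One two-parameter sigmoid per drug and line, fitted in a mixed model over all curves with the slope shared within a line.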
# BX-795 = compound: O=C(NCCCNc1nc(Nc2cccc(NC(=O)N3CCCC3)c2)ncc1I)c1cccs1 [BX-795]; conditions: top dose 5 µM; top dose inferred
# Description: as §1
# Tretinoin = compound: CC1=C(/C=C/C(C)=C/C=C/C(C)=C/C(=O)O)C(C)(C)CCC1 [Tretinoin]; conditions: top dose 10 µM; top dose inferred
# Description: as §1
# SB-505124 = compound: Cc1cccc(-c2[nH]c(C(C)(C)C)nc2-c2ccc3c(c2)OCO3)n1 [SB-505124]; conditions: top dose 10 µM; top dose inferred
# Description: as §1
# PI-103 = compound: Oc1cccc(-c2nc(N3CCOCC3)c3oc4ncccc4c3n2)c1 [PI-103]; conditions: top dose 10.24 µM
# Description: as §1
# GSK690693 = compound: CCn1c(-c2nonc2N)nc2c(C#CC(C)(C)O)ncc(OC[C@H]3CCCNC3)c21 [GSK690693]; conditions: top dose 10.24 µM; top dose inferred
# Description: as §1
# WH-4-023 = compound: COc1ccc(N(C(=O)Oc2c(C)cccc2C)c2ccnc(Nc3ccc(N4CCN(C)CC4)cc3)n2)c(OC)c1 [WH-4-023]; conditions: top dose 5.12 µM; top dose inferred
# Description: as §1
# [1] = top dose 20 µM, screen: GDSC drug entry 1236, top dose inferred
# [2] = top dose 40 µM, screen: GDSC drug entry 245
Cell Line,AUC (UNC0638; [1]),IC50 (UNC0638; [1]) [µM],AUC (UNC0638; [2]),IC50 (UNC0638; [2]) [µM],AUC (BX-795),IC50 (BX-795) [µM],AUC (Tretinoin),IC50 (Tretinoin) [µM],AUC (SB-505124),IC50 (SB-505124) [µM],AUC (PI-103),IC50 (PI-103) [µM],AUC (GSK690693),IC50 (GSK690693) [µM],AUC (WH-4-023),IC50 (WH-4-023) [µM]
"EKVX (lung adenocarcinoma, adherent)",0.965,> 20,0.97,> 40,0.859,> 5,0.844,> 10,0.957,> 10,0.763,9.4,0.969,> 10.2,0.966,> 5.12
"EM-2 (chronic myeloid leukaemia, suspension)",0.78,9.33,0.712,10.9,0.761,1.99,0.753,3.75,0.976,> 10,0.683,2.24,0.924,> 10.2,0.109,< 0.02
"ES1 (Ewing sarcoma, adherent)",0.752,6.52,0.598,4.63,0.835,3.22,0.986,> 10,0.882,> 10,0.202,0.0859,0.643,1.58,0.964,> 5.12
"ES4 (Ewing sarcoma, adherent)",0.765,8.37,0.709,10.7,0.889,> 5,0.915,> 10,0.965,> 10,0.523,0.746,0.729,3.2,0.973,> 5.12
"ES5 (Ewing sarcoma, adherent)",0.592,2.32,0.491,2.35,0.708,1.34,0.971,> 10,0.964,> 10,0.275,0.132,0.305,0.166,0.974,> 5.12
"ES6 (Ewing sarcoma, adherent)",0.744,7.53,0.654,7.42,0.892,> 5,0.948,> 10,0.956,> 10,0.79,5.79,0.923,> 10.2,0.672,1.09
"ES7 (Ewing sarcoma, adherent)",0.761,7.31,0.634,5.92,0.671,0.948,0.893,> 10,0.949,> 10,0.33,0.212,0.859,8.84,0.942,> 5.12
"ES8 (Ewing sarcoma, adherent)",0.785,7.86,0.629,5.52,0.723,1.26,0.985,> 10,0.935,> 10,0.438,0.439,0.612,1.27,0.929,> 5.12
"ES-2 (ovary, adherent)",0.794,7.96,0.605,4.66,0.846,3.01,0.991,> 10,0.99,> 10,0.783,3.78,0.991,> 10.2,0.99,> 5.12
"ETK-1 (biliary tract, adherent)",0.564,1.91,0.517,2.81,0.84,4.12,0.962,> 10,0.96,> 10,0.957,> 10.2,0.954,> 10.2,0.741,1.75
"EVSA-T (breast, adherent)",0.802,8.2,0.662,6.54,0.86,3.26,0.942,> 10,0.882,7.98,0.37,0.296,0.842,5.74,0.941,> 5.12
"EW-1 (Ewing sarcoma, semi-adherent)",0.827,10.9,0.563,3.66,0.948,> 5,0.989,> 10,0.984,> 10,0.475,0.551,0.453,0.483,0.967,> 5.12
"EW-3 (Ewing sarcoma, adherent)",0.752,7.46,0.609,5.21,0.906,> 5,0.982,> 10,0.962,> 10,0.543,0.855,0.941,> 10.2,0.943,> 5.12
"EW-11 (Ewing sarcoma, adherent)",0.732,7.07,0.629,6.31,0.884,> 5,0.859,> 10,0.916,> 10,0.357,0.229,0.528,0.78,0.977,> 5.12
"EW-13 (Ewing sarcoma, suspension)",0.925,> 20,0.678,8.32,0.933,> 5,0.976,> 10,0.972,> 10,0.362,0.255,0.852,9.3,0.984,> 5.12
"EW-16 (Ewing sarcoma, adherent)",0.763,7.51,0.607,4.98,0.799,2.52,0.954,> 10,0.873,> 10,0.413,0.366,0.929,> 10.2,0.868,5.01
"EW-18 (Ewing sarcoma, suspension)",0.801,10.5,0.559,3.66,0.799,2.6,0.932,> 10,0.978,> 10,0.237,0.104,0.469,0.524,0.986,> 5.12

Cell Line,AUC (UNC0638; [1]),IC50 (UNC0638; [1]) [µM],AUC (UNC0638; [2]),IC50 (UNC0638; [2]) [µM],AUC (BX-795),IC50 (BX-795) [µM],AUC (Tretinoin),IC50 (Tretinoin) [µM],AUC (SB-505124),IC50 (SB-505124) [µM],AUC (PI-103),IC50 (PI-103) [µM],AUC (GSK690693),IC50 (GSK690693) [µM],AUC (WH-4-023),IC50 (WH-4-023) [µM]
"EW-24 (Ewing sarcoma, semi-adherent)",0.965,> 20,0.791,15.6,0.977,> 5,0.972,> 10,0.976,> 10,0.993,> 10.2,0.993,> 10.2,0.989,> 5.12
"EoL-1-cell (haematopoietic neoplasm, suspension)",0.67,3.48,0.496,2.45,0.226,0.0562,0.107,0.0413,0.973,> 10,0.789,3.96,0.871,7.77,0.032,< 0.02
"Farage (B-cell lymphoma, suspension)",0.992,> 20,0.674,6.89,0.898,4.27,0.963,> 10,0.981,> 10,0.163,0.079,0.485,0.588,0.632,0.688
"GB-1 (glioma, adherent)",0.971,> 20,0.686,9.16,0.816,3.43,0.929,> 10,0.947,> 10,0.566,1,0.98,> 10.2,0.594,0.61
"GDM-1 (acute myeloid leukaemia, suspension)",0.828,11.7,0.571,3.88,0.866,4.16,0.987,> 10,0.959,> 10,0.057,< 0.04,0.748,3.16,0.6,0.596
"GI-1 (glioma, adherent)",0.793,8.69,0.675,7.54,0.862,4,0.98,> 10,0.957,> 10,0.504,0.656,0.967,> 10.2,0.87,4.42
"GI-ME-N (neuroblastoma, adherent)",0.777,11.1,0.55,3.59,0.762,2.44,0.782,5.86,0.971,> 10,0.47,0.515,0.949,> 10.2,0.664,1.08
"GOTO (neuroblastoma, adherent)",0.686,4.47,0.709,10.6,0.929,> 5,0.885,> 10,0.959,> 10,0.812,6.43,0.974,> 10.2,0.9,> 5.12
"GR-ST (lymphoblastic leukaemia, suspension)",0.677,4.34,0.574,4.16,0.858,> 5,0.937,> 10,0.785,5.26,0.227,0.0846,0.789,5.62,0.937,> 5.12
"GRANTA-519 (B-cell lymphoma, suspension)",0.973,> 20,0.837,23.1,0.886,4.57,0.989,> 10,0.97,> 10,0.334,0.233,0.951,> 10.2,0.99,> 5.12
"GT3TKB (stomach, adherent)",0.882,16.8,0.905,> 40,0.79,1.94,0.935,> 10,0.94,> 10,0.962,> 10.2,0.99,> 10.2,0.987,> 5.12
"H9 (lymphoid neoplasm, suspension)",0.789,7.16,0.989,> 40,0.884,3.76,0.991,> 10,0.988,> 10,0.989,> 10.2,0.992,> 10.2,0.97,> 5.12
"HA7-RCC (kidney, adherent)",0.979,> 20,0.984,> 40,0.851,4.45,0.982,> 10,0.96,> 10,0.977,> 10.2,0.983,> 10.2,0.862,> 5.12
"HAL-01 (lymphoblastic leukaemia, suspension)",0.829,10.5,0.739,10.9,0.89,4.59,0.9,> 10,0.988,> 10,0.056,< 0.04,0.904,> 10.2,0.969,> 5.12
"HC-1 (hairy cell leukaemia, suspension)",0.779,7.82,0.577,4.02,0.978,> 5,0.951,> 10,0.969,> 10,0.316,0.2,0.912,> 10.2,0.853,3.77
"HCC1187 (breast, suspension)",0.848,13.8,0.9,> 40,0.841,3.22,0.982,> 10,0.956,> 10,0.705,2.34,0.885,10.2,0.962,> 5.12
"HCC2157 (breast, suspension)",0.986,> 20,0.836,28.3,0.895,> 5,0.872,> 10,0.975,> 10,0.25,0.117,0.802,5.33,0.984,> 5.12

# A lower IC50 marks a more sensitive line; fits outside the tested doses are given as limits. The AUC spans the tested range (256-fold, ending at the top dose) of the same fit; values near 1 show little effect. For some of these results: Any top dose called inferred comes from the curve model; the source does not state it. For some of these results: Where an entry number is given, a second screen of the drug exists; the two often differ.
